# “And” between values parts separate entries of the source, which are not always exact repeats. Identical values can stand only once. Inconclusive results, whose numbers are uncertain, are shown with a selection of clear calls. Potencies of inconclusive entries are doubtful fits and often do not repeat. A structure can be active in one record and inactive in another. The source made the active and inactive calls. Calls come from the whole dose curve; as a rule, active = well fitted curve in the direction sought with a large enough effect in the repeat runs; inconclusive = weak or mixed curves; inactive = no such curve, though single readings can be large; an effect the other way counts as inactive or inconclusive.
# What was measured:
# [1] = qHTS RealTime-Glo MT Cell Viability Assay in HEK293 cells - 16 hour (AID 1224872); note: nearly all actives have a fitted effect of over 50% in size
# Outline: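 Assay medium contained NanoLuc luciferase plus cell-permeant prosubstrate, added with HEK293 cells at 600 cells/well. After 5 h at 37 C/5% CO2 compounds were added; plates stayed at 37 C for 40 h with serial luminescence reads.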
# [2] = qHTS RealTime-Glo MT Cell Viability Assay in HEK293 cells - 40 hour (AID 1224874); settings: RealTime-Glo luminescence; max response: stronger effect = lower value; note: nearly all actives have a fitted effect of over 50% in size; for max response: % is set by controls: 0 for no effect and ±100 for the full control effect
# Outline: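 Luminescence readout at each listed time point; HEK293, 600 cells/well, RealTime-Glo MT reagent added with cells; compounds pinned (23 nL in DMSO) after 5 h at 37 C; continuous culture at 37 C.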
# [3] = A CellTox Green Cytotoxicity Assay to monitor cytotoxicity in HepG2 cells - 40 hour (AID 1224879); note: nearly all actives have a fitted effect of over 40% in size
# Outline: (§1)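 HepG2, 600 cells/well premixed w/ CellTox Green; 5 h settle, 37 C/5% CO2; pintool cpd add (DMSO); 37 C, 40 h; fluorescence read at 0, 8, 16, 24, 32, 40 h.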
# [4] = A CellTox Green Cytotoxicity Assay to monitor cytotoxicity in HepG2 cells - 16 hour (AID 1224876); note: nearly all actives have a fitted effect of over 45% in size
# Outline: as §1
# [5] = A CellTox Green Cytotoxicity Assay to monitor cytotoxicity in HepG2 cells - 24 hour (AID 1224878); note: nearly all actives have a fitted effect of over 45% in size
# Outline: as §1
# [6] = A CellTox Green Cytotoxicity Assay to monitor cytotoxicity in HEK293 cells - 24 hour (AID 1224875); note: nearly all actives have a fitted effect of over 45% in size
# Outline: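 Read-out: fluorescence of a cell-impermeant cyanine dye staining DNA of dead cells, proportional to cytotoxicity. HEK293, 600 cells/well with reagent, compound (23 nL DMSO) added after 5 h; reads at 0, 8, 16, 24, 32, 40 h.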
# [7] = qHTS RealTime-Glo MT Cell Viability Assay in HepG2 cells - 32 hour (AID 1224877); note: nearly all actives have a fitted effect of over 55% in size
# Outline: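 qHTS, HepG2, 600 cells/well, RealTime-Glo (NanoLuc + prosubstrate) added with cells; 5 h preincubation; DMSO compound addition; 37 C; luminescence at 0/8/16/24/32/40 h.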
# Potency is the fitted concentration of half-maximal effect; tags give direction and shape of the fitted curve.
structure (smiles),measurement,setting,value
CC(=O)[C@@]1(O)CC[C@H]2[C@@H]3C[C@H](C)C4=CC(=O)CC[C@]4(C)[C@H]3CC[C@@]21C,Potency,[1],"inconclusive: 19 µM [cytotoxic, partial curve]"
O=S(=O)(O)c1ccc(Nc2nc(Nc3ccc(/C=C/c4ccc(Nc5nc(Nc6ccc(S(=O)(=O)O)cc6)nc(N(CCO)CCO)n5)cc4S(=O)(=O)O)c(S(=O)(=O)O)c3)nc(N(CCO)CCO)n2)cc1,Potency,[1],inactive
same,max response,[2],inactive: -1.51%
O=C1Nc2ccccc2C1(c1ccc(O)cc1)c1ccc(O)cc1,Potency,[1],"inconclusive: 54.9 µM [cytotoxic, single point] and inactive"
same,Potency,[2],active: 49 µM
same,Potency,[3],inactive
O=CCCCC=O,Potency,[1],"inconclusive: 37.5 µM [cytotoxic, partial curve]"
same,Potency,[4],"inconclusive: 21.9 µM [activator, single point]"
same,Potency,[5],"inconclusive: 59.4 µM [activator, single point] and inconclusive: 21.9 µM [activator, single point]"
same,Potency,[3],"inconclusive: 53 µM [activator, single point] and inconclusive: 21.9 µM [activator, single point]"
C[C@]12C[C@H](O)[C@H]3[C@@H](CCC4=CC(=O)CC[C@@]43C)[C@@H]1CC[C@@H]2C(=O)CO,Potency,[1],"inconclusive: 24.5 µM [cytotoxic, partial curve, poor fit]"
same,Potency,[2],"inconclusive: 21.9 µM [cytotoxic, partial curve] and inconclusive: 19.5 µM [cytotoxic, partial curve]"
same,Potency,[3],inactive
Cc1cccc(C)c1NC(=O)C(C)N (stereo not given),Potency,[1],inactive
same,Potency,[6],active: 21.3 µM
same,Potency,[4],active: 21.3 µM
same,Potency,[5],active: 21.3 µM
CCCCCCCCCCCC[N+](C)(C)C,Potency,[1],"inconclusive: 4.35 µM [cytotoxic, full curve] and inconclusive: 2.19 µM [cytotoxic, full curve, poor fit]"
same,Potency,[2],"active: 4.35 µM and inconclusive: 3.09 µM [cytotoxic, full curve, poor fit] and active: 9.77 µM"
same,Potency,[6],"inconclusive: 61.5 µM [activator, single point] and inconclusive: 21.9 µM [activator, single point]"
same,Potency,[4],"inconclusive: 54.8 µM [activator, single point] and inconclusive: 54.9 µM [activator, single point]"
CCCCCCCCCCCCN1CCCCCC1=O,Potency,[1],"inconclusive: 21.9 µM [cytotoxic, partial curve]"
same,Potency,[2],"inconclusive: 24.5 µM [cytotoxic, partial curve]"
same,Potency,[4],"inconclusive: 54.9 µM [activator, single point]"
same,Potency,[5],"inconclusive: 54.9 µM [activator, single point]"
same,Potency,[3],"inconclusive: 54.9 µM [activator, single point]"
c1ccc(Nc2ccccc2)cc1,Potency,[1],active: 17.4 µM
same,Potency,[2],active: 19.5 µM
same,Potency,[4],"inconclusive: 54.9 µM [activator, single point]"
same,Potency,[5],"inconclusive: 54.9 µM [activator, single point]"
same,Potency,[3],"inconclusive: 49 µM [activator, single point]"
CCCCCCCCCCCCOC(=O)c1ccc(O)cc1,Potency,[1],active: 44 µM
same,Potency,[2],"inconclusive: 55.4 µM [cytotoxic, single point]"
Clc1ccccc1-c1nc(-c2ccncc2)no1,Potency,[1],"inconclusive: 23.9 µM [cytotoxic, partial curve, poor fit]"
same,Potency,[2],"inconclusive: 12 µM [cytotoxic, partial curve, poor fit]"
same,Potency,[3],"inconclusive: 8.49 µM [activator, partial curve]"
O=C1OC2(c3ccccc31)c1cc(I)c(O)c(I)c1Oc1c2cc(I)c(O)c1I,Potency,[1],"active: 49.1 µM and inconclusive: 35.1 µM [cytotoxic, single point] and inconclusive: 29.8 µM [cytotoxic, single point]"
same,Potency,[2],"inconclusive: 26.5 µM [cytotoxic, partial curve, poor fit] and inconclusive: 26.8 µM [cytotoxic, partial curve, poor fit]"
same,Potency,[6],active: 12 µM [middle of 4 runs]
same,Potency,[7],"inconclusive: 23.9 µM [cytotoxic, partial curve]"
